Laboratory results published in PubChem BioAssay AID1466 (National Center for Advancing Translational Sciences (NCATS), 2008).
Hit rate of the full screen: of about 200,000 compounds, about 10 (0.005%) were called active. This list was built around the results that the source calls inconclusive (neither active nor inactive); the mix of calls is not that of the screen. Calls come from the whole dose curve; as a rule, active = well fitted inhibition curve with a large enough effect; inconclusive = small, poorly fitted or top-dose-only effect, or effect the other way, or another doubt; inactive = no such curve, though single readings can be large or run the other way. No potency is given beside an inconclusive call; the fits are too rough.

biological target: Lysosomal alpha-glucosidase (Homo sapiens) (UniProt P10253); test: qHTS Assay for Inhibitors of Human alpha-Glucosidase as a Potential Chaperone Treatment of Pompe Disease; conditions: purified human GAA, 4-MU-alpha-glucoside fluorescence; activity change, negative = inhibition: at 76.9 µM (top of the series) unless noted;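 for activity change, negative = inhibition: plate controls were uninhibited enzyme wells for no effect and no-enzyme background for full effect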
In short: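 Activity normalized between no-enzyme (basal) and enzyme-only wells. Conditions: 4 nM human enzyme, 400 uM fluorogenic substrate, citrate/phosphate pH 5.0 with Tween-20, 20 min room temperature, compounds up to 77 uM.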
Potency is the fitted concentration of half-maximal effect; tags give direction and shape of the fitted curve.

SMILES	Potency	activity change, negative = inhibition
CCOc1ccc(C(=O)CN2CCN(S(=O)(=O)c3ccc(Br)cc3)CC2)cc1	inconclusive [inhibitor, partial curve]	–
O=[N+]([O-])c1ccc(N2CCN(S(=O)(=O)c3ccccc3)CC2)cc1NCc1cccnc1	inconclusive [inhibitor, partial curve]	–
CC(C)(Cc1ccc(O)cc1)NC(=O)CC(=O)N=Nc1c(O)[nH]c2cc(Br)ccc12	inactive	–
O=c1[nH][nH]c(-c2ccccc2O)c1C(C[N+](=O)[O-])c1ccc(Cl)cc1Cl (centres undefined)	inconclusive [inhibitor, partial curve, poor fit]	–
COc1cccc(CN2CCN(c3nc4nonc4nc3NC3CC3)CC2)c1	–	inconclusive: 11.6% [activator]
NS(=O)(=O)c1cccc(NC(=O)COC(=O)Cc2ccc(S(=O)(=O)N3CCCCC3)s2)c1	inconclusive [inhibitor, single point]	–
COc1ccccc1NC(=O)c1cc(Sc2nncn2C)nc2ccccc12	inconclusive [activator, single point]	–
Nc1ccc2nc(-c3ccc(N)c(Cl)c3)[nH]c2c1	inconclusive [inhibitor, single point]	–
CCCCC1=NC2(CCCC2)C(=O)N1Cc1ccc(-c2ccccc2-c2nn[nH]n2)cc1	inconclusive [inhibitor, full curve, poor fit]	–
COc1ccc(OC(=O)c2cccc(S(=O)(=O)N3CCCC3)c2)cc1	inconclusive [inhibitor, single point]	–
CCOC(=O)N1CCN(C(=O)c2ccc(NC(=O)c3ccc(C)cc3)cc2)CC1	inconclusive [inhibitor, single point]	–
CC(=O)OCCN(C)c1cc(SC(C)C)c2nonc2c1[N+](=O)[O-]	inconclusive [inhibitor, partial curve, poor fit]	–
O=C(CSc1nnc2c(n1)[nH]c1ccccc12)Nc1ccc(S(=O)(=O)Nc2ncccn2)cc1	–	inconclusive: 7.8% [activator]
CSc1cnc2c(=O)n(C)c(=O)[nH]c2n1	inconclusive [activator, partial curve]	–
COCCNC(=O)CSc1nnc(-c2ccc(C)cc2)c(-c2ccc(C)cc2)n1	inconclusive [inhibitor, single point]	–
O=C(CSc1nnc(-c2ccc(Cl)cc2)n1Cc1ccco1)NCc1ccc2c(c1)OCO2	inconclusive [inhibitor, partial curve, poor fit]	–
O=C(CCc1ccccc1)Nc1cc(C(=O)O)cc(C(=O)O)c1	inconclusive [inhibitor, single point]	–
CCc1nnc(NC(=O)C2(C)COC(c3ccccc3)OC2)s1 (centres undefined)	–	inconclusive: -15.2% [inhibitor]
O=C1c2oc3ccccc3c(=O)c2C(c2cccc(Br)c2)N1Cc1ccco1 (centres undefined)	inconclusive [inhibitor, full curve, poor fit]	–
N#Cc1ccc(NC(=O)CCc2ccc(S(=O)(=O)N3CCOCC3)cc2)cc1	inconclusive [inhibitor, single point]	–

SMILES	Potency	activity change, negative = inhibition
CCOC(=O)c1cccc(NC(=O)CSc2nnc(COc3ccccc3)n2CC)c1	inconclusive [inhibitor, single point]	–
COc1ccccc1N=c1oc2cc(O)ccc2cc1C(N)=O	inconclusive [activator, partial curve]	–
CC(C)CCOc1ccc(C(CC(N)=O)C(=O)O)cc1 (centres undefined)	inconclusive [inhibitor, full curve, poor fit]	–
O=C(c1ccccc1)N1CCCCC(S(=O)(=O)c2ccc3ccccc3c2)C1=O (centres undefined)	inconclusive [inhibitor, full curve]	–
O=c1[nH][nH]c2c(N=Cc3ccccc3O)ccc(F)c12	inactive	–
O=C1CCCC(O)=C1N=Nc1ccc(C(=O)O)cc1	inconclusive [inhibitor, single point]	–
COc1ccc(C2/C(=C(/O)c3ccc(C)cc3)C(=O)C(=O)N2CC2CCCO2)cc1OC (centres undefined)	–	inconclusive: 6.32% [activator]
Fc1ccc(-c2nc3n(n2)Cc2ccccc2-3)cc1	inactive	–
COc1ccccc1-c1cc(C(F)(F)F)nc(S(=O)(=O)CCCC(=O)NCc2ccc(F)cc2)n1	inconclusive [activator, single point]	–
Cc1cccc(N2CCN(Cc3nc(-c4cccc(Oc5ccccc5)c4)oc3C)CC2)n1	inconclusive [inhibitor, single point]	–
O=C(c1ccc2c(c1)OCCO2)N1CCN(c2ccc([N+](=O)[O-])cc2)CC1	–	inconclusive: -17.7% [inhibitor]
CCOC(=O)c1c(-c2ccccc2)csc1NC(=O)CSc1nc(N)cc(N)n1	inconclusive [inhibitor, single point]	–
O=C(NC(=S)N1CCCCC1)C12CC3CC(CC(C3)C1)C2	inconclusive [inhibitor, single point]	–
O=C(O)c1cnc(-c2ccccc2)nc1Sc1cccc(Cl)c1	inconclusive [inhibitor, single point]	–
CCOC(=O)N1CCC(NC(=O)c2cc3c(-c4ccccc4F)nn(C)c3s2)CC1	inconclusive [inhibitor, single point]	–
COc1ccc2c(c1)C(C1C(=O)CCCC1=O)c1ccccc1O2 (centres undefined)	inconclusive [inhibitor, single point]	–
CCn1c(=NC(=O)c2ccc(S(=O)(=O)N(C)C)cc2)sc2cccc(OC)c21	inconclusive [activator, single point]	–
CCN(CC)CCNC(=O)c1[nH]c2ccc(OCc3ccccc3)cc2c1C	inconclusive [inhibitor, single point]	–
Cc1cc(N2CCN(c3cccc(C)c3C)CC2)nc(-c2ccccc2)n1	inconclusive [inhibitor, partial curve, poor fit]	–
